Results on 57 sequences are retold here after the supplement of paper PMC11417369.

The other results are listed elsewhere or left out.

In this experiment the test system is PfHDP1 homeodomain (GST-tagged). Nature of the experiment: gcPBM binding intensity (ln(normalized median fluorescence intensity)); higher = stronger DNA binding. In outline:
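DNA-binding domains from P. falciparum, fused to GST and produced in E. coli, were put on an Agilent 4 × 180k double-stranded probe array for 1 h in 1× PBS holding 1% milk, 0.2 mg/ml BSA, 0.5% salmon testes DNA and 0.03% Triton X-100. Probes were primer-extended, 36 bp long and drawn from intergenic genomic regions, with negative controls included. After Alexa488 anti-GST antibody detection and a 488 nm scan, binding intensity was set as the highest Masliner-normalised natural-log median intensity across replicate spots of either probe orientation.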
For the sequence “TATTTTGCAAAATGTGCATGTTGTGTATTATGTGAC [TGCATGCA_site59]”, the “gcPBM binding intensity (ln)” value amounted to 10.3.
Then “CACAAATATACAAATACACACAAATATACAAATACA [CACACA_site2385]”, with 6.86; and “GTAAAATTTACATAGAGTACTTATATTTTTTTCTGC [XGTACX_site3414]”, with 6.41; and “TTGTCTACAAAAATGTGCTTCTAATCATACGACTTG [CACACA_negctrl_site46]”, with 6.03.
The same measure for “TACATATATTATTGCACACATATAAAATACCCCCAA [CACACA_site3895]”: 10.8; for “CAGTTTACTAATATTGCACACGAATATGAAAAAGAG [CACACA_site8941]”: 9.89.
The same measure for “TTTTTCACACTTCAAAAGTGTCAACCTTCTATTCTC [TGCATGCA_negctrl_site489]”: 6.03; for TTATCATTTGCCATTGTGCACTTATATGCTCACATT: 10.3.
Turning to AAAAAAAATTATGAAGTGCATTAGTGAATTTGATTG, the “gcPBM binding intensity (ln)” value was 9.09.
The same measure for TTTTTTTTTCAAGAGGTGCGTGTATTTTAACAAAAA: 6.8; for “AAAAAAAATAAAATAATAAAAATTATGAATATATAT [CACACA_negctrl_site280]”: 6.34.
Then “TGGAGGTCAGTTCACAGTACCCAGTAACTCTACGGA [XGTACX_site2549]”, with 5.97; and “ATCATTCCACTTTTCACACATATCTCTATTTCTATC [CACACA_site4723]”, with 7.25; and “AAATGTATAGGAATAATAATAAAAAAAAAAAAAAAT [CACACA_negctrl_site1793]”, with 6.44.
The same measure for “ATAGGTAATAATAATACACACGGTGAAATATAGATG [CACACA_site9336]”: 6.68.
As to “TCTTGTCTACCTTGTATTTAATATTTACATATATAA [TGCATGCA_negctrl_site320]”, the “gcPBM binding intensity (ln)” value is 7.17.
Then “TATTTCTTATTACATACACACATATACATAGATGAC [CACACA_site5729]”, with 6.84; and “TTCTTGTATATATTTTGTACATATATACCATTTTAG [XGTACX_site2409]”, with 6.64; and “TATATGTTTTTATGTACACACTTTTAACCTAAGAAA [CACACA_site4769]”, with 6.68.
Then “TATTTGTAAAAATTGTGTACTTAGAAAATTCCAAAA [XGTACX_site6007]”, with 6.04.
Turning to “ATTTTTTTTTTCTTTTTTTTTTGTTTTTCTCCTTTT [CACACA_negctrl_site1182]”, the “gcPBM binding intensity (ln)” value is 6.06.
The same measure for “ATTTTTTTTATTATTACACACATATAATAAAAAAAT [CACACA_site1802]”: 6.69.
The same measure for “ATATTGTAAGTAAACACACACACATATATCTGTATA [CACACA_site4541]”: 6.43; for “TAAAGTGTAAAATTCACACACATATATATATATATA [CACACA_site4883]”: 9.47.
The same measure for “GTATAATTTATTGAACGTACACATATATATATGTAT [XGTACX_site1395]”: 6.44; for “AATAAAATGCAATACATTTTGTTATATAATGTTGTT [CACACA_negctrl_site1525]”: 6.99.
For the sequence “CACAATGTAGTGTATAAATACAATAAAAGGTTGTAT [CACACA_negctrl_site700]”, the “gcPBM binding intensity (ln)” value was 6.47.
The same measure for “TATTTATAAAAATATACACACATACAAATATGCATA [CACACA_site4555]”: 6.59; for “TATAAGTTGATATATACACACATATATAAATATGTA [CACACA_site7526]”: 6.4; for “CTTATTTAATGTATCACACACGAGAATAAAAAATAA [CACACA_site3020]”: 6.52.
The same measure for “ATGGTTTTCAGAAAAACATGCATACAATAATAAAAA [TGCATGCA_site815]”: 7.22; for “TTTAAAATAACCAAAAACAAAAAGAAACACAAATGT [GTGCAC_negctrl_site705]”: 6.95.
Take “AAAAAAAAAATTTACTGTACACATTTGGGATACTCA [XGTACX_site5191]”: the “gcPBM binding intensity (ln)” value came out at 5.98.
In the case of “GATCAAATAGAAAATACATGCAATGTGTGAAATAAC [TGCATGCA_site835]”, the “gcPBM binding intensity (ln)” value was 7.33.
The same measure for TTTCAAATGGAATGTGTGCACATAAATGTAAATAAA: 10.8; for “ATTTATATATAGGTGTGTCCACAAATAGTATGTAAA [XGTACX_site2916]”: 6.59; for “GTATATAGTATGTAGAGTACTAATTTCCATATGTTC [XGTACX_site7816]”: 6.35.
Then “CAATATTTTCATAGATGTACTTTGGACTTATTATAT [XGTACX_site4849]”, with 6.17.
The same measure for “AATTAATATATAAATAATAAAAAAAAATATATAAAC [XGTACX_negctrl_site280]”: 6.63; for “TAAATAAAAGATACGAGTACGTATGATGTTAACCTC [XGTACX_site8840]”: 6.26; for “ATGAAAAAAAATAAAAAATATATATATATATATATA [CACACA_negctrl_site236]”: 9.49.
For “TATAACCATATATACACACACATATAAATATAAATA [CACACA_site7089]”, the “gcPBM binding intensity (ln)” value is 6.82.
The same measure for “TATATTTTAATTTGAAGTACTAATATTTATTTATAT [XGTACX_site7458]”: 6.14; for ATATATATATATTTCGTGCACTGATAATATTATTTT: 9.62.
Then “AAGGTGGAAACAATTACACACACACTAAAAAAAAAA [CACACA_site7493]”, with 6.69; and “ATATGTAGTTTTTATTGTACGTGTAGAAGAAATAAT [XGTACX_site6608]”, with 7.05.
The same measure for “TTCATTAAAATTATTACACACAGTTCTTCAACCAAA [CACACA_site3504]”: 6.36.
Turning to “TTTTAAACAGGACACACACACATATAGATTTATATA [CACACA_site6560]”, the “gcPBM binding intensity (ln)” value stood at 6.98.
Then “AATGATTTTCAATCGAAATGAAACTTAGAAGATATA [CACACA_negctrl_site1475]”, with 6; and “TATTTTTAAACAAAACTGTATTTATTTTTTAAAATT [CACACA_negctrl_site1449]”, with 5.92; and TTTTGTTATTTTTGTATGCACTACATATTATTATAT, with 8.89.
The same measure for “TAGTTTTTTATATATTGTACAAATGATATATTATAT [XGTACX_site1002]”: 6.64; for “AAACTTTTTTTAAAAACACACATATAGATTTATATA [CACACA_site7842]”: 6.48.
The same measure for “GAAATTAAAAAATTTATGCACACTTTAAAAAAAAAA [CACACA_site3769]”: 9.28; for “ATATATATATATAATTGTACATTTTTATGTTTTATA [XGTACX_site4560]”: 8.99; for “AAATAAAATAATAAAACATGCAAAAATAATGATTTA [TGCATGCA_site415]”: 6.72.
“ATAAAGATTAACAAAGTGCATTTATATATATAATCT [GTGCAC_site9407]”: the “gcPBM binding intensity (ln)” value is 7.59.
